For the series the following is noted: Homo sapiens, pH 7.2, Urea, CD, Sodium phosphate 50 mM, NaCl 0.1 M, reversible: yes.

Regarding “Fibroblast growth factor 2 wild type (chain not printed)”, the denaturant m value came to 2.7 kcal/mol/M (15 °C), 2.44 kcal/mol/M (25 °C), 2.55 kcal/mol/M (35 °C) and 2.58 kcal/mol/M (40 °C). The “denaturant midpoint (higher = more stable)” value by setting is: (15 °C) 3.9 M; (25 °C) 3.8 M; (35 °C) 3.5 M; (40 °C) 2.9 M. Also, the unfolding free energy (15 °C) stood at 10.5 kcal/mol, the unfolding free energy (25 °C) is 9.3 kcal/mol, the unfolding free energy (35 °C) was 9 kcal/mol and the unfolding free energy (40 °C) was determined as 7.5 kcal/mol.

These data come from FireProtDB (doi:10.1021/bi00076a015).
